According to paper PMC6919601, “Identification of Plasmodium dipeptidyl aminopeptidase allosteric inhibitors by high throughput screening” (PLoS ONE, 2019):
The whole screen tested about 110,000 compounds, of which about 230 (0.21%) showed an effect of 50% or more. Some of the results follow.

target: DPAP1 (Plasmodium falciparum, UniProt Q8IIJ9); test: primary screen, percent inhibition; read by cleavage of a fluorogenic dipeptide substrate; higher = more effect of the substance; design: species or system P. falciparum D10 trophozoite lysates; single well
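Further: 30 min substrate incubation versus DMSO and 10 µM JCP410 controls.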

Sequence of DPAP1 (Q8IIJ9 whole entry, looked up): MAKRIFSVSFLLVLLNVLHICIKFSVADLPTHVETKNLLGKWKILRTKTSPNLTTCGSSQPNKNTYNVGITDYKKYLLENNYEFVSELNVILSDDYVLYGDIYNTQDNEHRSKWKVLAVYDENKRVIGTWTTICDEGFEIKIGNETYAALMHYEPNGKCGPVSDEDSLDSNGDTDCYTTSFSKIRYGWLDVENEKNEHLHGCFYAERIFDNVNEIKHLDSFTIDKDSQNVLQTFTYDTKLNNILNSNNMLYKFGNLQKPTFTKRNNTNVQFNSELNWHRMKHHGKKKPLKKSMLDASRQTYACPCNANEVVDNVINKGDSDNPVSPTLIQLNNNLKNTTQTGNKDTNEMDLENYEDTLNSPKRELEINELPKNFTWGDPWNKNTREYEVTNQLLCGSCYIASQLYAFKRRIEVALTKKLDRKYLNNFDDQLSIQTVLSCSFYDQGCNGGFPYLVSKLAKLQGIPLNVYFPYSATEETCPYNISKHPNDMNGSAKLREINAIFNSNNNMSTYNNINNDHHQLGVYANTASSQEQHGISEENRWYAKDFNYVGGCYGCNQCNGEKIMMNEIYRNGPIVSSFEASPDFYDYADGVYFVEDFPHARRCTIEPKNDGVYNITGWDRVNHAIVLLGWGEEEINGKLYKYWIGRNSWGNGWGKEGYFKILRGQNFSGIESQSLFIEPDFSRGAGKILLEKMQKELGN

Row | Structure (SMILES) | % Inhibition @ 10 uM [%]
1 | COc1ccccc1CNCc1ccc(C)cc1 | -1.96
2 | CCN(CC)C(=O)/C(=C/c1cn(CC)c2ccccc12)NC(=O)c1ccc(C)cc1 | -1.74
3 | CCC(=O)Nc1c2c(nn1-c1cccc(C)c1C)CS(=O)(=O)C2 | 2.35
4 | Cc1cc(C)c(OCCCCCCN2CCNCC2)c(C)c1 | 1.27
5 | CCCCCCNCc1cccc(Br)c1 | 6.98
6 | COc1cc(-n2nc(C)c(/C=N/c3ccc(O)cc3C)c2O)ccc1Cl | 4.67
7 | CNS(=O)(=O)c1cn(CC(=O)NC2CCCC2)cc1S(=O)(=O)NC | 2.23
8 | Cc1cc(C)nc(NCCCO)n1 | -3.5
9 | Cc1ccc(NC(=O)c2cccc([N+](=O)[O-])c2C)c(C)c1 | 0.247
10 | O=C(CCn1nc(-c2ccccc2)c2ccccc2c1=O)NC1CCCCC1 | -1.17
11 | O=C(c1ccccc1[N+](=O)[O-])N1CCN(c2ccc(F)cc2)CC1 | -2.02
12 | COc1ccc(Nc2nc(Cl)nc(N(c3ccccc3)c3ccccc3)n2)cc1 | 0.132
13 | COC(=O)C1=C(C)OC(=O)C1(NS(=O)(=O)c1ccc(Cl)cc1)C(F)(F)F (centres unmarked) | -1.52
14 | O=C(NC1CCN(Cc2ccccc2)CC1)c1cc(-c2ccco2)[nH]n1 | -0.899
15 | O=C(Nc1cccc2ccccc12)c1ccc(Cl)c([N+](=O)[O-])c1 | -1.38
16 | CC(C)OCCCNC(=O)C1CCN(S(=O)(=O)c2cccc3nsnc23)CC1 | -3.35
17 | CCSc1nc(C)c(CCOc2cccc(C)c2)c(O)n1 | 0.686
18 | CCCN(CCO)Cc1ccc(Cl)cc1 | 1.62
19 | COc1ccccc1CNC(=O)C1CCCN(S(=O)(=O)c2cccc3cccnc23)C1 (centres unmarked) | -2.92
20 | c1ccc(-c2cc3c(-n4cccc4)ncnc3o2)cc1 | -4.93
21 | CCc1ccc(OCc2cc(=O)n3oc(C)cc3n2)cc1 | -0.495
22 | CCOC(=O)N1CCN(c2ncnc3c2cnn3-c2ccc(C)cc2C)CC1 | -1.29
23 | CC1=C(C)CC(C(=O)Nc2cccc(F)c2)C(C(=O)O)C1 (centres unmarked) | -2.22
24 | O=C(O)c1cnc(-c2ccccc2)nc1 | 6.31
25 | Nc1nnnn1NCc1ccccc1OCc1ccc(F)cc1 | -4.35
26 | CC(C)(C)c1[nH]nc2c1C(c1ccc(Cl)cc1)C(C#N)=C(N)O2 (centres unmarked) | 1.58
27 | CN(C)c1nc2ccc(OCCN3CCCCC3)cc2s1 | -5.86
28 | FC(F)(F)c1cccc(N2CCN(C3CCN(CCc4ccccc4)CC3)CC2)c1 | 1.88
29 | C#CCOc1c(Cl)cc(C2C(C#N)=C(N)Oc3cc4c(cc32)OCO4)cc1OC (centres unmarked) | -0.366
